# According to the supplement of paper PMC12217912:
# Some of the results follow. Sequences were assembled here from the parent chain. Inactive controls read about 0.05.
# B1: TEV protease; numbered along this chain (parent)
# chain: MGESLFKGPRDYNPISSSICHLTNESDGHTTSLYGIGFGPFIITNKHLFRRNNGTLVVQSLHGVFKVKDTTTLQQHLVDGRDMIIIRMPKDFPPFPQKLKFREPQREERICLVTTNFQTKSMSSMVSDTSCTFPSGDGIFWKHWIQTKDGQCGSPLVSTRDGFIVGIHSASNFTNTNNYFTSVPKNFMELLTNQEAQQWVSGWRLNADSVLWGGHKVFMVKPEEPFQPVKEATQL
# Variants of: B1
# Experiment: raw area under fraction-flipped curve 0-4 h after induction (AUC4h, not background-subtracted), DNA-recorder readout of cleavage of the substrate (dimensionless); higher = more cleavage of the substrate by the protease variant
# Conditions: temperature: 34 °C; time window: 0-4 h after rhamnose induction
# Protocol: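 In vivo DNA recorder in E. coli TOP10(DE3) ΔrhaA at 34 °C. Each TEVp single-site mutant (parent TEVp 0) is paired with a single-site variant of the 7-mer TEVs (canonical ENLYFQ|S). The substrate sits between flexible linkers in a Bxb1-sfGFP-TEVs-SsrA fusion, so cleavage stabilises Bxb1 and speeds flipping of a recombination array, read by NGS. The value is the raw area under the fraction-flipped curve over 0-4 h after rhamnose induction (AUC4h), with ≥20 reads per time point. It is not background-subtracted; inactive controls average about 0.047.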
# 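Further: Bxb1 expression induced with 0.2% (w/v) L-rhamnose at OD600 near 0.5, cultures sampled hourly, flipped fraction per protease–substrate barcode pair counted by paired-end Illumina sequencing.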
Variant,area with substrate EALYFQS,area with substrate ECLYFQS,area with substrate EDLYFQS,area with substrate EELYFQS,area with substrate EFLYFQS,area with substrate EGLYFQS,area with substrate EHLYFQS,area with substrate EILYFQS,area with substrate EKLYFQS,area with substrate EMLYFQS,area with substrate EPLYFQS,area with substrate EQLYFQS,area with substrate ERLYFQS,area with substrate ESLYFQS,area with substrate EWLYFQS,area with substrate ELLYFQS,area with substrate ETLYFQS,area with substrate EVLYFQS,area with substrate EYLYFQS
MGESLFKGPRDYNPISSSICQLTNESDGHTTSLYGIGFGPFIITNKHLFRRNNGTLVVQSLHGVFKVKDTTTLQQHLVDGRDMIIIRMPKDFPPFPQKLKFREPQREERICLVTTNFQTKSMSSMVSDTSCTFPSGDGIFWKHWIQTKDGQCGSPLVSTRDGFIVGIHSASNFTNTNNYFTSVPKNFMELLTNQEAQQWVSGWRLNADSVLWGGHKVFMVKPEEPFQPVKEATQL [H21Q],0.108,0.102,0.124,0.122,0.0471,0.0869,0.11,0.11,0.116,0.13,0.112,0.147,0.107,0.114,0.0843,–,–,–,–
MGESLFKGPRDYNPISSSICALTNESDGHTTSLYGIGFGPFIITNKHLFRRNNGTLVVQSLHGVFKVKDTTTLQQHLVDGRDMIIIRMPKDFPPFPQKLKFREPQREERICLVTTNFQTKSMSSMVSDTSCTFPSGDGIFWKHWIQTKDGQCGSPLVSTRDGFIVGIHSASNFTNTNNYFTSVPKNFMELLTNQEAQQWVSGWRLNADSVLWGGHKVFMVKPEEPFQPVKEATQL [H21A],0.0951,0.0876,0.115,–,0.097,0.0928,–,0.0975,–,0.104,0.104,0.114,0.0873,0.104,0.0964,0.098,0.105,0.0927,–
MGESLFKGPRDYNPISSSICHLTNGSDGHTTSLYGIGFGPFIITNKHLFRRNNGTLVVQSLHGVFKVKDTTTLQQHLVDGRDMIIIRMPKDFPPFPQKLKFREPQREERICLVTTNFQTKSMSSMVSDTSCTFPSGDGIFWKHWIQTKDGQCGSPLVSTRDGFIVGIHSASNFTNTNNYFTSVPKNFMELLTNQEAQQWVSGWRLNADSVLWGGHKVFMVKPEEPFQPVKEATQL [E25G],0.102,0.0964,0.0701,0.111,–,0.0797,0.0996,0.0961,0.076,0.0978,0.0849,–,0.0881,0.0927,0.0827,0.0781,0.109,0.0967,0.0942
MGESLFKGPRDYNPISSSICHLTEESDGHTTSLYGIGFGPFIITNKHLFRRNNGTLVVQSLHGVFKVKDTTTLQQHLVDGRDMIIIRMPKDFPPFPQKLKFREPQREERICLVTTNFQTKSMSSMVSDTSCTFPSGDGIFWKHWIQTKDGQCGSPLVSTRDGFIVGIHSASNFTNTNNYFTSVPKNFMELLTNQEAQQWVSGWRLNADSVLWGGHKVFMVKPEEPFQPVKEATQL [N24E],0.0892,0.073,0.115,0.0847,–,0.0935,0.0964,0.0774,0.104,0.0888,0.146,0.123,0.0845,0.0884,0.0876,0.065,0.122,0.0754,–
MGESLFKGPRDYNPISSSICHLNNESDGHTTSLYGIGFGPFIITNKHLFRRNNGTLVVQSLHGVFKVKDTTTLQQHLVDGRDMIIIRMPKDFPPFPQKLKFREPQREERICLVTTNFQTKSMSSMVSDTSCTFPSGDGIFWKHWIQTKDGQCGSPLVSTRDGFIVGIHSASNFTNTNNYFTSVPKNFMELLTNQEAQQWVSGWRLNADSVLWGGHKVFMVKPEEPFQPVKEATQL [T23N],0.0782,0.0759,0.114,0.117,0.0796,–,0.0963,0.0992,0.11,0.0913,0.109,0.0967,0.0899,0.089,–,0.0294,0.13,0.09,0.0684
MGESLFKGPRDYNPISSSICHLLNESDGHTTSLYGIGFGPFIITNKHLFRRNNGTLVVQSLHGVFKVKDTTTLQQHLVDGRDMIIIRMPKDFPPFPQKLKFREPQREERICLVTTNFQTKSMSSMVSDTSCTFPSGDGIFWKHWIQTKDGQCGSPLVSTRDGFIVGIHSASNFTNTNNYFTSVPKNFMELLTNQEAQQWVSGWRLNADSVLWGGHKVFMVKPEEPFQPVKEATQL [T23L],0.12,0.116,0.125,–,0.097,0.0875,–,0.0911,0.107,0.114,0.111,0.121,–,0.0908,–,0.0946,–,0.0904,0.105
MGESLFKGPRDYNPISSSICHLCNESDGHTTSLYGIGFGPFIITNKHLFRRNNGTLVVQSLHGVFKVKDTTTLQQHLVDGRDMIIIRMPKDFPPFPQKLKFREPQREERICLVTTNFQTKSMSSMVSDTSCTFPSGDGIFWKHWIQTKDGQCGSPLVSTRDGFIVGIHSASNFTNTNNYFTSVPKNFMELLTNQEAQQWVSGWRLNADSVLWGGHKVFMVKPEEPFQPVKEATQL [T23C],0.114,0.0979,0.116,0.12,–,0.0732,–,0.0823,0.0813,0.0842,0.113,0.111,–,0.105,–,0.0853,–,0.0882,0.0713
MGESLFKGPRDYNPISSSICHLYNESDGHTTSLYGIGFGPFIITNKHLFRRNNGTLVVQSLHGVFKVKDTTTLQQHLVDGRDMIIIRMPKDFPPFPQKLKFREPQREERICLVTTNFQTKSMSSMVSDTSCTFPSGDGIFWKHWIQTKDGQCGSPLVSTRDGFIVGIHSASNFTNTNNYFTSVPKNFMELLTNQEAQQWVSGWRLNADSVLWGGHKVFMVKPEEPFQPVKEATQL [T23Y],0.0968,0.0766,0.0998,0.101,0.0892,–,0.0944,0.0837,0.0759,0.0849,0.108,0.105,0.0909,0.0892,0.103,–,0.1,0.09,0.0909
